Measured values from PubChem BioAssay AID1347073 (National Center for Advancing Translational Sciences (NCATS), 2019).
The whole screen tested about 45,000 compounds, of which about 200 (0.44%) were called active. About 7% were inconclusive and are not listed. The call rests on the fitted dose curve; in most records, active means well fitted activation curve with a large enough effect; inconclusive means small, poorly fitted or top-dose-only effect; inactive means no such curve, though single readings can be large or run the other way. This is one part of the list.

assay: qHTS of TDP-43 Inhibitors: NCGC Sytravon Library Screen; conditions: yeast TDP-43 toxicity rescue, BacTiter-Glo growth, 24 h; series mostly up to 46.1 µM; growth rescue (activation): at the top concentration; further: nearly all actives have a fitted effect of over 55% in size; on growth rescue (activation): 0% is about no effect
Outline: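 TDP-43-expressing yeast, pregrown in raffinose, seeded at OD600 0.02 in galactose medium with compound for 24 hr at 30 deg C. Growth read by BacTiter-Glo luminescence, so rescue of toxicity appears as activation.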
Potency means the concentration at half of the fitted maximal effect.

Structure (SMILES) | growth rescue (activation) | Potency
O=C(CSc1nc2ccccc2[nH]1)c1c[nH]c2ccccc12 | inactive: -18.7% | 
CC1(C(=O)NS(=O)(=O)c2cccc(Cl)c2)CCN1C(=O)CCc1ccc(Cl)cc1Cl (stereo not drawn) | inactive: 12.9% | 
CC(NC(=O)C1CCN(S(=O)(=O)c2cccc3nonc23)CC1)c1ccccc1 (stereo not drawn) | inactive: 8.37% | 
CCOc1ccccc1C(=O)N[C@H](C(=O)OCC(=O)Nc1nnc(-c2ccccc2)o1)C(C)C | inactive: 5.4% | 
CN(C(=O)COC(=O)c1cnc(Cl)c(Cl)c1)C1CCCCC1 | inactive: 15.4% | 
COc1cc(SC)ccc1C(=O)Nc1ccc(C)cc1C | inactive: 25.5% | 
O=[N+]([O-])c1ccc(NCCCN2CCOCC2)c([N+](=O)[O-])c1 | inactive: -2.08% | 
COc1ccc(NC(=O)COc2ccc(/C=C/c3cccc[n+]3C)cc2OC)cc1 | inactive: -11.4% | 
CCc1ccccc1NS(=O)(=O)c1ccc2c(c1)NC(=O)CC(=O)N2 | inactive: 8.93% | 
O=C(N/N=C\C=C\c1ccc([N+](=O)[O-])o1)c1cccs1 | inactive: 24.1% | 
CCOc1ccc(NC(=O)CSc2nnc(C)n2C2CC2)cc1S(=O)(=O)N1CCCC1 | inactive: 25.8% | 
O=C(C1=NN[C@@H]2C(=O)N(c3cccc(F)c3)C(=O)[C@H]12)c1ccc2ccccc2n1 | inactive: 21.9% | 
NS(=O)(=O)c1ccc(CCNC(=O)CN2CCN(S(=O)(=O)c3ccccc3F)CC2)cc1 | inactive: -2.09% | 
O=C(CN1C2CCCC1CC(NC(=O)c1ccccc1)C2)Nc1ccccc1C(F)(F)F (stereo not drawn) | inactive: -10% | 
COc1cc(/C=N/n2nnnc2N)ccc1OCc1c(C)no[n+]1[O-] | inactive: 23.6% | 
O=C(COC(=O)CCN1C(=O)/C(=C\C=C\c2ccccc2)SC1=S)Nc1ccc(Br)cc1 | inactive: 4.31% | 
CC(=C\c1ccco1)/C=C1/SC(=S)N(CC(=O)O)C1=O | inactive: 0.0647% | 
Cc1cc(C)n2nc(SCC(=O)Nc3ccccc3C)nc2n1 | inactive: -2.81% | 
CCCCc1nc2cc(C(=O)N3CCCCC3CC(=O)OCC)ccc2o1 (stereo not drawn) | inactive: 19.6% | 
O=C(O)/C=C/C(=O)Nc1ccc(OC(F)(F)Cl)cc1 | inactive: 0.0154% | 
CCC(=O)Nc1nc(C)c(-c2csc(Nc3ccc(C(=O)O)cc3)n2)s1 | inactive: 5.8% | 
CCN=c1scc(C)n1/N=C/c1ccsc1 | inactive: 32.1% | 
Cc1cc(-c2csc(NC(=O)c3ccc(C#N)cc3)n2)c(C)n1Cc1ccccc1 | inactive: -7.46% | 

Structure (SMILES) | growth rescue (activation) | Potency
CCOC(=O)c1c(C)[nH]c(C(=O)CSc2nc(C)cc(C)n2)c1C | inactive: 15.7% | 
Cc1cccc(C)c1OCC(=O)Nc1ccc(S(=O)(=O)Nc2ccccn2)cc1 | inactive: 13.4% | 
ClCc1ncc(-c2ccc(Cl)cc2)o1 | inactive: 12.6% | 
O=C(NCCc1nc2ccccc2[nH]1)/C(=C/c1ccco1)NC(=O)c1ccc(Br)o1 | inactive: 6.81% | 
COc1cccc(/C=C2\SC(=S)N(C(Cc3ccccc3)C(=O)O)C2=O)c1 (stereo not drawn) | inactive: 9.94% | 
Nc1nc(CSc2nc3ccccc3s2)nc(N2CCOCC2)n1 | inactive: 6.92% | 
COc1ccc(S(=O)(=O)NC(C(=O)OCC(=O)Nc2ccc(N3CCOCC3)cc2)C(C)C)cc1 (stereo not drawn) | inactive: 17.5% | 
C(=N\n1cnnc1)/c1ccc(-c2ccccc2)cc1 |  | active: 11.2 µM
CC(=O)c1ccc(N2CCN(C(=O)Cc3cccs3)CC2)cc1 | inactive: 10.8% | 
CC1CCN(c2nc(N3CCCCC3)nc(N3CCCCC3)n2)CC1 | inactive: -2.61% | 
Cc1ccc(NC(=O)c2ccoc2C)cc1C | inactive: 2.3% | 
Cc1cc(C(=O)COc2ccc(F)cc2Br)c(C)n1C | inactive: 23.9% | 
COc1ccc(C=NNC(=O)c2ccccc2OCc2ccc(F)cc2)c(OC)c1 | inactive: 17.7% | 
NC(=O)c1cc(NC(=O)COC(=O)CCCN2C(=O)c3cccc4cccc(c34)C2=O)cc(C(N)=O)c1 | inactive: -25.4% | 
Cc1cc(NC(=O)CSc2nnc(C)n2C)no1 | inactive: 6.37% | 
COc1ccccc1N1C(=O)Cc2ccccc2C1=O | inactive: -12.2% | 
CCN(CC)S(=O)(=O)c1cccc(C(=O)OC2CCOC2=O)c1 (stereo not drawn) | inactive: -19.4% | 
O=C(N/C(=C\c1ccc([N+](=O)[O-])cc1)C(=O)N1CCCCC1)c1ccccc1 | inactive: 2.02% | 
CC(=O)Nc1ccc(Nc2cc(N3CCOCC3)c3nonc3c2[N+](=O)[O-])cc1 | inactive: -33.6% | 
CC(NS(=O)(=O)c1ccccc1)c1n[nH]c(=S)n1-c1ccccc1 (stereo not drawn) | inactive: -7.64% | 
CCCc1cc(=O)[nH]c(SCC(=O)NCc2ccc3c(c2)OCO3)n1 | inactive: 8.35% | 
CC1(C(=O)Nc2cccnc2)Cc2c(-c3cccc(C(F)(F)F)c3)ccnc2O1 (stereo not drawn) | inactive: 5.66% | 
CCCc1cc(=O)[nH]c(SCC(=O)N2C(C)CCCC2C)n1 (stereo not drawn) | inactive: 14.8% | 

Structure (SMILES) | growth rescue (activation) | Potency
COc1ccccc1/C=C/C=N/NC(=O)CCn1cnc2ccccc21 | inactive: -11.5% | 
O=C(NCC1CCCCC1)c1cccnc1Cl | inactive: -3.98% | 
CCn1c(COc2cccc3cccnc23)nnc1SC(F)F | inactive: -25.4% | 
O=S(=O)(Nc1cccc(S(=O)(=O)N2CCOCC2)c1)c1cccs1 | inactive: 7.07% | 
O=C1NC2(CCSC2)C(=O)N1CC(=O)N(Cc1ccccc1)C1CCS(=O)(=O)C1 (stereo not drawn) | inactive: 4.85% | 
O=C(COC(=O)Cn1nnc(-c2ccccc2)n1)Nc1ccccc1Br | inactive: 8.98% | 
O=C(Nc1cccc(S(=O)(=O)Nc2ccc(SC(F)F)cc2)c1)C1CCC1 | inactive: 14.4% | 
O=C(CSc1nnc(SCc2ccccc2Cl)s1)N/N=C/c1c[nH]c2ccccc12 | inactive: 10.7% | 
CCNS(=O)(=O)c1ccc(CCC(N)=O)cc1 | inactive: -21.2% | 
N#Cc1sc2nc(C3CC3)cc(-c3ccc(Cl)cc3)c2c1N | inactive: 10.5% | 
Cc1ccc2nc(Cl)c(C3CC(c4ccco4)=NN3C(=O)CCCC(=O)O)cc2c1 (stereo not drawn) | inactive: -72.8% | 
COc1ccc(CN2CCCC(CNC(=O)c3ccc(F)cc3)C2)c(F)c1 (stereo not drawn) | inactive: 2.01% | 
COc1ccc(C2(C(=O)N3CCOCC3)CCOCC2)cc1OC | inactive: 11.9% | 
O=C(CCCN1C(=O)/C(=C/c2cccs2)SC1=S)Nc1ccc(O)cc1 | inactive: 5.62% | 
COCCNc1nc(NCCOc2ccccc2Cl)c2sc(-c3ccccc3)cc2n1 | inactive: -0.765% | 
CSC1=N/C(=C\c2ccccc2F)C(=O)S1 | inactive: 4.37% | 
Cc1cc(C)c(C(=O)CN2C(=O)NC3(CCCCCC3)C2=O)cc1C | inactive: -32.3% | 
CCc1ccc(CN(C)C(=O)c2cccc(S(=O)(=O)Nc3ccccc3OC)c2)cc1 | inactive: 13% | 
COc1cc(OC)cc(C(=O)N[C@H](C(=O)NC2CCCc3ccccc32)C(C)C)c1 (stereo partly drawn) | inactive: 12.8% | 
OCCNc1ncnc2ccc(Br)cc12 | inactive: 16.7% | 
COc1ccc(NC(=O)c2cccc(N3C(=O)C4CCC(C)CC4C3=O)c2)c(OC)c1 (stereo not drawn) | inactive: 12.9% | 
O=c1[nH]c(C2CCN(S(=O)(=O)c3ccc(S(=O)(=O)NC4CC4)cc3)CC2)nc2c1nnn2Cc1cccc(F)c1 | inactive: 5.29% | 
